Test results: the BET-seq Pho4 binding data (Le et al. 2018)
Some of the results follow. Values were computed here from the reads of four pooled replicates and scatter widely.

Each sequence was assayed against T1, Pho4 (S. cerevisiae) (UniProt P07270) (assay: relative binding free energy (BET-seq); higher = weaker binding). Details: reference: library average.
T1 sequence: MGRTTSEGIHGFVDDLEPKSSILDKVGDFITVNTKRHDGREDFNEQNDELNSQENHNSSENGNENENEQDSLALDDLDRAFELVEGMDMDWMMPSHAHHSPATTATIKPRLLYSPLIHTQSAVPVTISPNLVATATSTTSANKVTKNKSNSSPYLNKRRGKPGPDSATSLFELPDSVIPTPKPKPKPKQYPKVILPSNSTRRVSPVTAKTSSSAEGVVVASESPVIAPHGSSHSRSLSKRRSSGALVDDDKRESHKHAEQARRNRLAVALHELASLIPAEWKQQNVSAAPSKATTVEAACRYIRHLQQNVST
With AGTGGCACGTGAAAGA the “relative binding free energy” value was 0.502 kJ/mol.
AGTGTCACGTGAGAGT was tested, and the “relative binding free energy” value was 0.711 kJ/mol.
With TAGAACACGTGGATAT the “relative binding free energy” value was 1.09 kJ/mol.
With GGGCTCACGTGTTTCT the “relative binding free energy” value was 1.76 kJ/mol.
In the case of GTATGCACGTGATGTT, the “relative binding free energy” value is reported as 0.753 kJ/mol.
For TTCTGCACGTGAGATT, the “relative binding free energy” value was 1.26 kJ/mol.
For CAGGGCACGTGGGTGG, the “relative binding free energy” value was -1.17 kJ/mol.
With ATGGGCACGTGTTATG the “relative binding free energy” value was -0.586 kJ/mol.
For TTTATCACGTGTGCGA, the “relative binding free energy” value was 0.628 kJ/mol.
In the case of TTTGCCACGTGGTAAT, the “relative binding free energy” value is reported as -0.46 kJ/mol.
In the case of GGTTCCACGTGGGTCG, the “relative binding free energy” value is reported as -0.167 kJ/mol.
In the case of ATTTACACGTGGATCT, the “relative binding free energy” value is reported as 0.879 kJ/mol.
In the case of TTAGACACGTGGTAGA, the “relative binding free energy” value is reported as 0.209 kJ/mol.
In the case of GGTCTCACGTGTGACT, the “relative binding free energy” value is reported as 1.92 kJ/mol.
For TGCCTCACGTGTTTTT, the “relative binding free energy” value was 0.879 kJ/mol.
With TGGGACACGTGGGTCG the “relative binding free energy” value was -0.628 kJ/mol.
In the case of ATGGGCACGTGCTGAG, the “relative binding free energy” value is reported as -0.92 kJ/mol.
With TTTAGCACGTGGCGCA the “relative binding free energy” value was -0.753 kJ/mol.
TTCAACACGTGTAGGG was tested, and the “relative binding free energy” value was -0.377 kJ/mol.
TGGTTCACGTGACGTC was tested, and the “relative binding free energy” value was 1.46 kJ/mol.
With TGGTCCACGTGATTTT the “relative binding free energy” value was 0.795 kJ/mol.
For TGGAGCACGTGTCAAG, the “relative binding free energy” value was -0.46 kJ/mol.
For TTTTCCACGTGTGTCG, the “relative binding free energy” value was 0.335 kJ/mol.
For GTGGTCACGTGTCATA, the “relative binding free energy” value was 0.167 kJ/mol.
GTCATCACGTGGGCGT was tested, and the “relative binding free energy” value was 0.0418 kJ/mol.
For GTCGACACGTGGGCGT, the “relative binding free energy” value was -0.418 kJ/mol.
For GGAGTCACGTGTGGAA, the “relative binding free energy” value was 0.586 kJ/mol.
With GGACACACGTGGGGGG the “relative binding free energy” value was -0.837 kJ/mol.
For GGATTCACGTGCGGAG, the “relative binding free energy” value was 0.795 kJ/mol.
In the case of GTTTCCACGTGGGTAA, the “relative binding free energy” value is reported as 0.335 kJ/mol.
TAATTCACGTGGCAGT was tested, and the “relative binding free energy” value was 0.586 kJ/mol.
With GGTTCCACGTGGTGGT the “relative binding free energy” value was 0.209 kJ/mol.
GAGTGCACGTGTGGGA was tested, and the “relative binding free energy” value was 0.544 kJ/mol.
In the case of TGGGACACGTGGTCTA, the “relative binding free energy” value is reported as -0.293 kJ/mol.
For ACGGTCACGTGGAGGA, the “relative binding free energy” value was 0.879 kJ/mol.
In the case of TAAAGCACGTGGTGTG, the “relative binding free energy” value is reported as -1 kJ/mol.
CACGTCACGTGGTGGG was tested, and the “relative binding free energy” value was -0.209 kJ/mol.
In the case of GGAAGCACGTGTGATT, the “relative binding free energy” value is reported as -0.126 kJ/mol.
TGGGCCACGTGCTAGT was tested, and the “relative binding free energy” value was -0.628 kJ/mol.
With TAAGGCACGTGATTGG the “relative binding free energy” value was -0.418 kJ/mol.
With TATTACACGTGAAGTA the “relative binding free energy” value was 1.26 kJ/mol.
With GTTCTCACGTGGTAAT the “relative binding free energy” value was 0.669 kJ/mol.
With TGGTACACGTGGGTAA the “relative binding free energy” value was -0.377 kJ/mol.
For CGCGTCACGTGCTGGT, the “relative binding free energy” value was 0.251 kJ/mol.
In the case of TTACTCACGTGGGTGA, the “relative binding free energy” value is reported as 0.879 kJ/mol.
TTGGTCACGTGCCAGG was tested, and the “relative binding free energy” value was 0.167 kJ/mol.
In the case of ATGGACACGTGATTAT, the “relative binding free energy” value is reported as 0.795 kJ/mol.
For ACGATCACGTGGGGTT, the “relative binding free energy” value was 0.377 kJ/mol.
GGGGGCACGTGTTTTT was tested, and the “relative binding free energy” value was 0.209 kJ/mol.
AATGTCACGTGTGAGG was tested, and the “relative binding free energy” value was 0.377 kJ/mol.
For GCAGGCACGTGGTGCG, the “relative binding free energy” value was -1 kJ/mol.
With TTGGTCACGTGTGCTA the “relative binding free energy” value was 0.293 kJ/mol.
AAGGACACGTGGGGGC was tested, and the “relative binding free energy” value was -0.377 kJ/mol.
For TGGGGCACGTGTAGCG, the “relative binding free energy” value was -0.335 kJ/mol.
GTATACACGTGGATTA was tested, and the “relative binding free energy” value was 0.628 kJ/mol.
With AACATCACGTGGTGGG the “relative binding free energy” value was 0.544 kJ/mol.
In the case of TTTAACACGTGATTCG, the “relative binding free energy” value is reported as 1.38 kJ/mol.
For AATCTCACGTGTGTGA, the “relative binding free energy” value was 0.879 kJ/mol.
TGGAGCACGTGCAGGT was tested, and the “relative binding free energy” value was -0.879 kJ/mol.
With TGGCTCACGTGGGTCA the “relative binding free energy” value was 0.209 kJ/mol.
For AGGGGCACGTGTTTTG, the “relative binding free energy” value was -0.251 kJ/mol.
For GGCGGCACGTGGGGTT, the “relative binding free energy” value was -0.586 kJ/mol.
For TCATGCACGTGTGTGA, the “relative binding free energy” value was -0.209 kJ/mol.
For TAGAGCACGTGGGTCG, the “relative binding free energy” value was -1.26 kJ/mol.
For AAGTACACGTGGATTT, the “relative binding free energy” value was 1.09 kJ/mol.
For ATGCTCACGTGGGGCT, the “relative binding free energy” value was -0.126 kJ/mol.
For CTTGGCACGTGACAGT, the “relative binding free energy” value was -0.126 kJ/mol.
TTTAGCACGTGACGGT was tested, and the “relative binding free energy” value was 0.418 kJ/mol.
With GTTTCCACGTGGCTTT the “relative binding free energy” value was 0.46 kJ/mol.
AGGTGCACGTGAGTCG was tested, and the “relative binding free energy” value was 1.09 kJ/mol.
TGTGGCACGTGCGTAT was tested, and the “relative binding free energy” value was -0.126 kJ/mol.
For TGAGTCACGTGCTGTT, the “relative binding free energy” value was 0.251 kJ/mol.
For ATTGTCACGTGAAAAT, the “relative binding free energy” value was 1 kJ/mol.
TCTTTCACGTGTCGTG was tested, and the “relative binding free energy” value was 1.13 kJ/mol.
In the case of ATTTGCACGTGTTTAT, the “relative binding free energy” value is reported as -0.209 kJ/mol.
For GGGGGCACGTGCCGTT, the “relative binding free energy” value was -1.17 kJ/mol.
TGTCACACGTGGCGGG was tested, and the “relative binding free energy” value was -0.209 kJ/mol.
With ACGCGCACGTGGGTGT the “relative binding free energy” value was -1.72 kJ/mol.
With CGTTCCACGTGTTTGG the “relative binding free energy” value was 0.628 kJ/mol.
For TGAGGCACGTGGATGG, the “relative binding free energy” value was -0.335 kJ/mol.
In the case of GGAGGCACGTGAGGGA, the “relative binding free energy” value is reported as 1 kJ/mol.
For TGGAACACGTGTGGAT, the “relative binding free energy” value was 0.837 kJ/mol.
With TGGTGCACGTGAGAGA the “relative binding free energy” value was 0.669 kJ/mol.
With GGCTACACGTGGGGTA the “relative binding free energy” value was -0.377 kJ/mol.
For TATTACACGTGTGATA, the “relative binding free energy” value was 1.46 kJ/mol.
In the case of CGCAGCACGTGGGTTG, the “relative binding free energy” value is reported as -1.17 kJ/mol.
In the case of ACTAGCACGTGTTGTA, the “relative binding free energy” value is reported as -0.251 kJ/mol.
With ATGCTCACGTGGGTAG the “relative binding free energy” value was 0.209 kJ/mol.
For AGATGCACGTGAGTGG, the “relative binding free energy” value was 0.167 kJ/mol.
CGCGTCACGTGGGTGG was tested, and the “relative binding free energy” value was -0.293 kJ/mol.
With GGGTGCACGTGAGACT the “relative binding free energy” value was 0.209 kJ/mol.
With TGGTCCACGTGGACTT the “relative binding free energy” value was 0.544 kJ/mol.
In the case of GCTTGCACGTGGCGTG, the “relative binding free energy” value is reported as -0.377 kJ/mol.
In the case of AGGGGCACGTGCCTGG, the “relative binding free energy” value is reported as -1.05 kJ/mol.
GCGGACACGTGGAGGG was tested, and the “relative binding free energy” value was 0.418 kJ/mol.
ATATGCACGTGGGTCA was tested, and the “relative binding free energy” value was -1.34 kJ/mol.
For CAGGGCACGTGGGGAA, the “relative binding free energy” value was -1.13 kJ/mol.
With ATAGGCACGTGTCTTG the “relative binding free energy” value was -0.837 kJ/mol.
With ATATGCACGTGCTGGG the “relative binding free energy” value was -0.628 kJ/mol.
For GGATCCACGTGCGGGT, the “relative binding free energy” value was -0.167 kJ/mol.
For TTATGCACGTGGGCTG, the “relative binding free energy” value was -0.753 kJ/mol.
In the case of TGAGACACGTGTGTTA, the “relative binding free energy” value is reported as 0 kJ/mol.
For GGGGTCACGTGAACGG, the “relative binding free energy” value was 1.55 kJ/mol.
In the case of GTGAGCACGTGAAGGT, the “relative binding free energy” value is reported as 1.13 kJ/mol.
With TGTGTCACGTGTTCTT the “relative binding free energy” value was 0.209 kJ/mol.
With TATGACACGTGGGTTT the “relative binding free energy” value was -0.335 kJ/mol.
In the case of TAAAGCACGTGTTGGG, the “relative binding free energy” value is reported as -0.711 kJ/mol.
GGTCGCACGTGATGTT was tested, and the “relative binding free energy” value was 0.209 kJ/mol.
For GTTTTCACGTGAGTCC, the “relative binding free energy” value was 1.8 kJ/mol.
For GGTACCACGTGGGGTA, the “relative binding free energy” value was -1.05 kJ/mol.
In the case of TGCGTCACGTGGTCTT, the “relative binding free energy” value is reported as -0.167 kJ/mol.
GCGTGCACGTGGGGAC was tested, and the “relative binding free energy” value was -0.711 kJ/mol.
For GTGTCCACGTGGCTTT, the “relative binding free energy” value was 0.0418 kJ/mol.
TTGGTCACGTGCGTCT was tested, and the “relative binding free energy” value was -0.0837 kJ/mol.
For TATCGCACGTGGGGGC, the “relative binding free energy” value was -0.418 kJ/mol.
